22 molecules from paper PMC12136788 can be followed below.

The chains are these.
B1: chrX:152750421:152751363:-|CDS|ENSG00000268606|control|control|control (ssRNA)
RNA: GGGAGUUCUACAGUCCGACGAUCCGACAAUCAGGUCAUGCCCAAGACAGGCCUCCUGAUAAUCGUCCUGGCCAUAAUCGCAAUAGAGGGCGACUGUGCCCCUGAGGAGAAAAUCUGGGAGGAGCUGAGUAUGUUGGAGGUGUUCAACAGAGGAUUGAGCAUCA
B2: chr17:10306458:10306629:-|CDS|ENSG00000006788|control|control|control (ssRNA)
RNA: GGGAGUUCUACAGUCCGACGAUCCCACCUGGAGCGGAUGAAGAAGAACCUGGAGCAGACGGUGAAGGACCUGCAGCACCGUCUAGAUGAGGCUGAACAACUGGCGCUGAAGGGCGGGAAGAAGCAGAUCCAGAAACUGGAGAACAACAGAGGAUUGAGCAUCA
B3: chr15:42211119:42211220:-|3pUTR|ENSG00000103978|unk|FALSE|unique (ssRNA)
RNA: GGGAGUUCUACAGUCCGACGAUCAGGUUACAUCUUGCAGAGGUUGUUUUGAGAAAAAAGGGCCCUUCUGAGUUAAGGAGCCAUAGUUCUAUCAAUGAUCAAAAGAAAAAAAAAAAAAGAGAAACUGUUACAGUAUGAUUCAGACAACAGAGGAUUGAGCAUCA
B4: chr13:39012690:39014476:-|CDS|ENSG00000120685|control|control|control (ssRNA)
RNA: GGGAGUUCUACAGUCCGACGAUCCCAGGGUCAUUAAUAGCCACCUCAUCUACCGCUGCCACCUCCACAUCUCUCCCUCAUCCUAGCUCAACGGCAGCUGUUCUCUCAGGGCUUUCUGCUUCAGCACCAGUCUCAGCAGCACCUCAACAGAGGAUUGAGCAUCA
B5: chr10:43183422:43183523:+|CDS|ENSG00000169826|msi1|total|mutant (ssRNA)
RNA: GGGAGUUCUACAGUCCGACGAUCUAAAGCCAUGAAUGAGGCCUCUCACUCCCACCUGGGAAUGCUGGUCUUCAGGGAGGAAACCGAGACGCAUCUUCAUAAACAGGCAUACAGGACAAACAGUGAAGCUGUUGGUUGAAAUCACAACAGAGGAUUGAGCAUCA
B6: chr2:70277881:70277982:+|3pUTR|ENSG00000116005|msi1|total|mutant (ssRNA)
RNA: GGGAGUUCUACAGUCCGACGAUCACCUGAGGGAGAACUUAAAGACAUCUCCGUUGGGGAGCCGUCCUUUUGAAUUUUACAGCCCGAUAUAAUCUUCAGUCAGAUAAAAUUUAUGGGAGCUGGUGUCUUAUGCCUGACUCUCCGCAACAGAGGAUUGAGCAUCA
B7: ENSG00000109805:stop:overlap|stop_codon|ENSG00000109805|stop_codon|NA|stop_codon (ssRNA)
RNA: GGGAGUUCUACAGUCCGACGAUCCCGCAGCACUAGAAAAAAGUAAACUUAACCUUGCCCAAUUUCUCAAUGAAGAUCUAAGUUAGGAAAGACGAUGGAGGUGGAAUCCUUUAAGAUUAUGUCCAGUUAUUUGCUUUAAUAAAGCAACAGAGGAUUGAGCAUCA
B8: chr11:9429001:9429102:+|CDS|ENSG00000205339|msi1_unk|total|mutant (ssRNA)
RNA: GGGAGUUCUACAGUCCGACGAUCGGUACUUCACUAUUUUUGUGAAGUGAAGUUCAAAAGUGAUCAGAACCUUCAAACAGCCUCCGAGCUAACAAGAAGAUGUCUGAUUGAUGACCGAGAAAUGCCUGUGAAAGUGGAAGCUGCCAACAGAGGAUUGAGCAUCA
B9: chrX:40073105:40073212:-|CDS|ENSG00000183337|unk|total|mutant (ssRNA)
RNA: GGGAGUUCUACAGUCCGACGAUCCUACCAAGAUGCCCUGGGGUUGGGCAUGGUGCAUCCCAUGUUGAUACCACACACGCCCACCGAGAUUACUAAAGAGGAGAAACCAGAGAGGAGAUCCCGGUCCCAUGAGAGAGCCCGUUACAACAGAGGAUUGAGCAUCA
B10: chr19:4409044:4409156:+|CDS|ENSG00000167670|unk|total|mutant (ssRNA)
RNA: GGGAGUUCUACAGUCCGACGAUCCUGUCAUGUGGGUUCUGACACCGACUUCCGACCGAAACUUGUCAACGGGAAGGGUCCCUCCGAUAACUUUUUAAGAAACCGAAUCGAAACCAGUAUUGGCCAGAGCACAGUCAUCAUUGACAACAGAGGAUUGAGCAUCA
B11: chr3:120395571:120395798:-|3pUTR|ENSG00000163430|msi1|FALSE|unique (ssRNA)
RNA: GGGAGUUCUACAGUCCGACGAUCUGGUUCUGAUCAUUGGUCCAGAGGGGAGAUAGGUUCCUGUGAUUUUUCCUUCUUCUCUAUAGAAUAAAUGAAAUCUUGUUACUAGAACAAGAAAUGUCAGAUGGCCAAAAACAAGAUGACCAACAGAGGAUUGAGCAUCA
B12: chr12:54395726:54395827:-|3pUTR|ENSG00000161638|msi1_unk|FALSE|overlapping (ssRNA)
RNA: GGGAGUUCUACAGUCCGACGAUCAAGAACACUAACUAUGCAUGGUGCCCCAGGACCAGCUCAGGACAGAUGCCACACAAGGAUAGAUGCUGGCCCAGGGCCCAGAGCCCAGCUCCAAGGGGAAUCAGAACUCAAAUGGGGCCACAACAGAGGAUUGAGCAUCA
B13: chr11:49981574:49982501:-|CDS|ENSG00000221954|control|control|control (ssRNA)
RNA: GGGAGUUCUACAGUCCGACGAUCGAACAAUAGCUUGGAGGGGAGGUGUAAAGCCCUCUCCACCUGUAUUUCUCACAUCAUAGUAGUUGUCUUAUUCUUUGUGCCCUGUAUAUUUGUGUAUCUGCGCUCAGUGACCACUCUGCCCAACAGAGGAUUGAGCAUCA
B14: chr13:32776882:32776983:+|3pUTR|ENSG00000083642|unk|FALSE|unique (ssRNA)
RNA: GGGAGUUCUACAGUCCGACGAUCAAAGUGUUUUGAAUUGUGUCUUAAUCUCUCCAUAUUCAACUAUUCUUCAUUUACAACAAUAGUGACACCAGUAAUUAUGAGAGGCUGUCAUAUAUCAAAGCAGCUCAGGUGGGAUCAACACAACAGAGGAUUGAGCAUCA
B15: chr1:162599429:162599460:+|3pUTR|ENSG00000117143|msi1_unk|FALSE|overlapping (ssRNA)
RNA: GGGAGUUCUACAGUCCGACGAUCGGUAUUUGAACCAGAUACCAAGUUUUGUUUGCCACGAUAGGAAUAGCUUUUAUUUUUGAUAGACCAACUGUGAACCUACAAGACGUCUUGGACAACUGAAGUUUAAAUAUCCACAGGGUUCAACAGAGGAUUGAGCAUCA
B16: chr9:127733218:127733560:-|CDS|ENSG00000160404|control|control|control (ssRNA)
RNA: GGGAGUUCUACAGUCCGACGAUCGAGGUUCAGCUCUACAGCCUUAGCCUGUGCUCCCAGCAGAAUCCAGUUCCCCAUGGGCUUAGCUGGGCUUUCCCAGUGCCCUCCGCCACUCUCAGAGAUGACAUUGUCAUUCCGCCUGGUCAACAGAGGAUUGAGCAUCA
B17: chr2:216672581:216672718:-|3pUTR|ENSG00000115461|msi1|total|mutant (ssRNA)
RNA: GGGAGUUCUACAGUCCGACGAUCCACUCCACCAGUCCCCGGUCGCCAGCCGGAGUCUCCUCUCUACCGCCACUGUCACACCGCCGCCCACAUGGACCGCACAGUUGUCAGACAAGAUUCCUUCAGAUUCCGAGUUGCCUACCGCAACAGAGGAUUGAGCAUCA
B18: chr20:54218986:54219149:+|CDS|ENSG00000101132|unk|FALSE|unique (ssRNA)
RNA: GGGAGUUCUACAGUCCGACGAUCAAAUUUGCAAGAAGAAAUUGACGCCUUAGAAUCCAGAGUGGAAUCAAUUCAGCGAGUGUUAGCAGAUUUGAAAGUUCAGUUGUAUGCAAAAUUCGGGAGCAACAUAAACCUUGAAGCUGACAACAGAGGAUUGAGCAUCA
B19: chr13:19993219:19993350:+|CDS|ENSG00000121741|unk|total|mutant (ssRNA)
RNA: GGGAGUUCUACAGUCCGACGAUCUGAUGAUGAUGUUGUUUUUAUCGAACCUGUACAACCUCCCCCACCUUCUGUACCAGUGGCCGCUGAUCAAAGAACCAUAACAUUUACAUCAUCAAAAAAUGAAGAACUACAAGGAAAUGACAACAGAGGAUUGAGCAUCA
B20: chr6:43012266:43012370:-|3pUTR|ENSG00000124733|unk|FALSE|bound_elsewhere (ssRNA)
RNA: GGGAGUUCUACAGUCCGACGAUCGAGACCCACUUUAUUCAGUUCUGUACAUAUGGGGACAUCGGUCCAAGCCCAACCCACCUUAGCAUGUAUCACUCUGUGGAGAAUAAAGCACCCUAUGUACACAGCCAAAAGCCGCACUGCCAACAGAGGAUUGAGCAUCA
B21: chr1:17068045:17068226:-|3pUTR|ENSG00000117115|msi1|FALSE|unique (ssRNA)
RNA: GGGAGUUCUACAGUCCGACGAUCCUCCUUCCACUGCCUUGACUUUCUUCCUUUUUAUUCCUGGUGCCAUCUGUCCAGGCAGCUAGACAAGAACUUGUUCGCCAGCAGCCAGAUUCAGGCCUUCCCAGGGGCAUAAUAAGUGACCAACAGAGGAUUGAGCAUCA
B22: chr17:65014400:65014519:-|CDS|ENSG00000120063|unk|FALSE|unique (ssRNA)
RNA: GGGAGUUCUACAGUCCGACGAUCAAACAAGACAGACUUGCUUGAGGAGAAGGUGCAAAUUGUGAGCAUCAAAGACUAUUUCCUAGAAUUUGAAGGGGAUCCCCACUGCUUAAGAGACGUCCAAAAAUUCCUGGUGGAAUGUUUCAACAGAGGAUUGAGCAUCA

The list shows a part of the results.

The assay concerns the target T1, UNK ZnF1-6 (called full-length) (human, UniProt Q9C0B0 30-357).
T1 sequence: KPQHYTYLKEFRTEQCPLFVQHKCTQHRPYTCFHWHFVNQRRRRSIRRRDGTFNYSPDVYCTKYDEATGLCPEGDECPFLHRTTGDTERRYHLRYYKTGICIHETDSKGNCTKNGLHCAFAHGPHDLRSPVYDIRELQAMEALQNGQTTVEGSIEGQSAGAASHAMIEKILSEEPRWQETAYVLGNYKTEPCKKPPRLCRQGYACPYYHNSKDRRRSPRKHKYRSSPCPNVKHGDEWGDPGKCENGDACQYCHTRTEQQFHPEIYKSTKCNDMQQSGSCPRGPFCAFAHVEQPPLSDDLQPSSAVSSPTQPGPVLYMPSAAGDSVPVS
The experiment in a line: nsRBNS (natural sequence RNA bind-n-seq); RBNS binding buffer (assumed for nsRBNS): 25 mM Tris pH 7.5, 150 mM KCl, 3 mM MgCl2, 0.01% Triton X-100, 500 ug/ml BSA, 20 U/ml SUPERase-In, 4 C; UNK is unkempt and MSI1 is Musashi-1; names of the RNAs are library labels; protein concentration not given here; high values mean tight binding.
B1 displayed a binding signal of 0.71 enrichment R. For B2, the binding signal worked out at 0.803 enrichment R. Then B3, with 0.762 enrichment R; and B4, with 1.28 enrichment R; and B5, with 0.583 enrichment R. Consider B6, for which the binding signal came out at 0.508 enrichment R. Then B7, with 0.92 enrichment R. The molecule B8 came in with a binding signal of 0.367 enrichment R.

B9 had a binding signal of 0.783 enrichment R. Then B10, with 0.611 enrichment R; and B11, with 0.56 enrichment R; and B12, with 0.861 enrichment R.

For B13, the binding signal turned out to be 1.79 enrichment R. On to B14, for which the binding signal is 0.512 enrichment R. With B15, the binding signal turned out to be 0.666 enrichment R. Molecule B16 came in with a binding signal of 0.79 enrichment R. Turning to B17, the binding signal stood at 0.819 enrichment R. B18 registered a binding signal of 0.343 enrichment R. Molecule B19 came in with a binding signal of 0.529 enrichment R.

B20 yielded a binding signal of 0.969 enrichment R. As for B21, the binding signal came to 0.791 enrichment R.

B22 returned a binding signal of 0.537 enrichment R.
